Assay results: the supplement of paper PMC12217912
This is one part of the list. Sequences were assembled here from the parent chain. Inactive controls read about 0.05.

B1: TEV protease; numbered along this chain (parent)
chain: MGESLFKGPRDYNPISSSICHLTNESDGHTTSLYGIGFGPFIITNKHLFRRNNGTLVVQSLHGVFKVKDTTTLQQHLVDGRDMIIIRMPKDFPPFPQKLKFREPQREERICLVTTNFQTKSMSSMVSDTSCTFPSGDGIFWKHWIQTKDGQCGSPLVSTRDGFIVGIHSASNFTNTNNYFTSVPKNFMELLTNQEAQQWVSGWRLNADSVLWGGHKVFMVKPEEPFQPVKEATQL

Variants of: B1
Assay: raw area under fraction-flipped curve 0-4 h after induction (AUC4h, not background-subtracted), DNA-recorder readout of cleavage of the substrate (dimensionless); higher = more cleavage of the substrate by the protease variant
Details: temperature: 34 °C; time window: 0-4 h after rhamnose induction
Protocol: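 In vivo DNA recorder in E. coli TOP10(DE3) ΔrhaA at 34 °C. Each TEVp single-site mutant (parent TEVp 0) is paired with a single-site variant of the 7-mer TEVs (canonical ENLYFQ|S). The substrate sits between flexible linkers in a Bxb1-sfGFP-TEVs-SsrA fusion, so cleavage stabilises Bxb1 and speeds flipping of a recombination array, read by NGS. The value is the raw area under the fraction-flipped curve over 0-4 h after rhamnose induction (AUC4h), with ≥20 reads per time point. It is not background-subtracted; inactive controls average about 0.047.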
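Also: Bxb1 expression induced with 0.2% (w/v) L-rhamnose at OD600 near 0.5, cultures sampled hourly, flipped fraction per protease–substrate barcode pair counted by paired-end Illumina sequencing.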

Row | Variant | area with substrate ENAYFQS | area with substrate ENCYFQS | area with substrate ENDYFQS | area with substrate ENEYFQS | area with substrate ENIYFQS | area with substrate ENKYFQS | area with substrate ENMYFQS | area with substrate ENNYFQS | area with substrate ENQYFQS | area with substrate ENRYFQS | area with substrate ENSYFQS | area with substrate ENTYFQS | area with substrate ENWYFQS | area with substrate ENFYFQS | area with substrate ENVYFQS | area with substrate ENGYFQS | area with substrate ENHYFQS | area with substrate ENPYFQS | area with substrate ENYYFQS
1 | K230L | 0.0702 | 0.0398 | 0.0825 | 0.0656 | 0.0949 | 0.0605 | 0.0648 | 0.0428 | 0.0688 | 0.0636 | 0.0563 | 0.073 | 0.007 |  |  |  |  |  | 
2 | W203C | 0.0704 | 0.0666 | 0.0805 | 0.0509 | 0.0169 | 0.0789 |  | 0.0665 | 0.0583 | 0.0758 | 0.0442 | 0.0551 | 0.0257 | 0.0661 | 0.0687 |  |  |  | 
3 | W203E | 0.0702 | 0.0535 | 0.0602 | 0.0456 |  |  | 0.0572 |  | 0.0529 |  | 0.06 | 0.0643 |  | 0.0584 | 0.0626 | 0.061 | 0.0676 | 0.071 | 
4 | G213W | 0.0625 | 0.059 | 0.0661 | 0.056 | 0.0454 | 0.0577 | 0.0375 | 0.0624 | 0.0542 | 0.0579 | 0.0449 | 0.0602 | 0.0481 | 0.0587 | 0.0486 | 0.0489 | 0.0408 | 0.0586 | 0.0573
5 | G213D | 0.0526 |  |  | 0.0584 |  | 0.0582 | 0.0566 |  | 0.0573 | 0.0586 | 0.0685 | 0.0521 |  |  |  |  |  |  | 
6 | G213M | 0.0502 | 0.0536 | 0.0773 | 0.0574 | 0.0628 |  |  |  | 0.0577 | 0.0604 | 0.0603 | 0.0555 |  | 0.0534 | 0.0652 |  |  | 0.0547 | 0.0545
7 | F218L | 0.0621 | 0.0465 | 0.0608 | 0.0657 | 0.103 | 0.0702 |  | 0.0588 | 0.0581 | 0.0575 | 0.0625 | 0.0501 | 0.0642 |  | 0.0728 | 0.0473 | 0.0676 |  | 0.0952
8 | I19C |  | 0.0645 |  | 0.0629 | 0.0988 | 0.0468 |  | 0.0617 | 0.0519 | 0.0491 | 0.0657 | 0.0588 | 0.0331 | 0.0486 | 0.098 | 0.071 |  | 0.0457 | 0.0601
9 | E223R | 0.0631 | 0.0654 | 0.0547 | 0.0718 | 0.0952 | 0.0641 | 0.0779 | 0.0911 | 0.0604 | 0.0647 | 0.0599 | 0.0554 |  | 0.0569 | 0.0714 | 0.0802 |  | 0.0615 | 0.0562
10 | E223C | 0.0675 | 0.0712 | 0.0532 | 0.0438 | 0.119 | 0.0778 |  | 0.0465 | 0.0591 |  | 0.0897 | 0.0526 |  | 0.0632 | 0.0398 | 0.0643 |  | 0.0583 | 0.0665
11 | L211C | 0.0643 |  | 0.064 |  |  | 0.0642 |  |  | 0.0659 |  | 0.0748 |  |  | 0.0653 |  | 0.0537 | 0.0744 | 0.0683 | 0.0499
12 | S26A |  | 0.0736 | 0.0641 | 0.0615 |  | 0.07 | 0.0803 | 0.067 | 0.0533 | 0.0282 | 0.0527 | 0.0665 | 0.0471 | 0.0537 | 0.0728 | 0.063 | 0.0899 | 0.0679 | 0.0594
13 | S26T |  | 0.0628 | 0.0636 | 0.0501 | 0.103 | 0.0607 | 0.0689 | 0.0612 | 0.062 | 0.0548 | 0.0547 | 0.0602 |  |  | 0.065 | 0.0633 | 0.0547 | 0.0537 | 0.0305
14 | P9M |  | 0.0773 | 0.0593 |  |  |  | 0.0752 |  | 0.0756 |  | 0.043 | 0.0717 |  | 0.0243 | 0.0934 |  |  | 0.0642 | 
15 | F187H | 0.0628 | 0.0485 | 0.0416 | 0.0658 | 0.0573 | 0.0615 |  | 0.0579 | 0.0522 |  | 0.0514 |  | 0.0322 | 0.0626 | 0.0448 | 0.0528 | 0.0664 |  | 
16 | A207V | 0.0565 | 0.0683 |  | 0.0416 | 0.111 | 0.0636 | 0.0709 |  | 0.0591 |  | 0.061 |  | 0.0535 | 0.0678 | 0.0602 | 0.0544 | 0.0599 | 0.0582 | 
17 | A207E | 0.0579 |  | 0.0296 | 0.067 | 0.103 |  | 0.0741 | 0.0676 |  |  | 0.0678 | 0.0465 |  |  |  |  | 0.0493 |  | 
18 | A207Y | 0.0451 |  | 0.0536 | 0.0566 |  |  | 0.0325 | 0.0366 |  |  | 0.0533 |  |  |  |  | 0.0403 |  |  | 0.0549
19 | H215E | 0.0381 | 0.0594 |  | 0.0611 | 0.048 | 0.0846 |  | 0.0531 | 0.0648 | 0.0509 | 0.0647 | 0.0597 |  | 0.04 | 0.0515 | 0.0665 | 0.0592 |  | 
20 | H215R | 0.0587 | 0.054 | 0.0602 | 0.0597 | 0.14 |  | 0.0458 | 0.0771 | 0.0596 |  | 0.0602 |  |  | 0.0666 | 0.0559 | 0.0426 | 0.0431 | 0.0624 | 
21 | G202M | 0.0566 | 0.0645 | 0.0494 | 0.0609 | 0.0683 | 0.0476 | 0.0583 |  | 0.0505 |  | 0.0563 | 0.0573 |  | 0.0581 | 0.0261 | 0.0352 |  | 0.0463 | 0.055
22 | F226K | 0.0521 | 0.0564 | 0.0601 | 0.0501 |  | 0.0534 |  | 0.0661 | 0.0662 |  | 0.0606 | 0.0718 | 0.0587 | 0.0781 | 0.0742 | 0.0601 | 0.0742 |  | 0.0538
23 | F226A | 0.0744 |  |  |  |  |  |  | 0.0774 | 0.0616 | 0.062 | 0.0574 |  |  | 0.0671 |  | 0.0693 |  |  | 
24 | L190W | 0.0564 |  | 0.0649 | 0.0637 |  |  | 0.0765 |  | 0.0595 | 0.0618 | 0.0335 |  |  | 0.0572 | 0.0721 |  | 0.076 |  | 
25 | Q234R | 0.0387 |  | 0.0615 | 0.061 | 0.0662 | 0.0657 |  | 0.0571 | 0.0684 | 0.0675 | 0.0578 | 0.0617 |  |  |  | 0.0899 | 0.0658 | 0.0672 | 
26 | W199D | 0.0491 |  | 0.0751 | 0.0733 |  | 0.0703 | 0.0507 | 0.0623 | 0.0487 | 0.0414 | 0.0272 | 0.0621 | 0.0511 | 0.0542 | 0.0603 |  |  | 0.0568 | 
